Source: PubChem BioAssay (NCATS)
Some of the results follow. The main result of the screen is listed elsewhere. These columns were measured beside it and carry no call. For some of these results: Compounds called inactive in the main read-out are mostly missing here. The note in brackets gives the kind of curve behind each potency; many fits are weak.

Columns and labels:
[1] = qHTS drug screen for cell cycle checkpoint inhibitors in PARPi-resistant BRCA-mutant ovarian cancer cell lines. (AID 1963452); conditions: PEO1/OlaR viability, CellTiter-Glo luminescence, 96 h
Outline: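 PEO1, PEO4 and PEO1/OlaR ovarian cancer cells, 600 per well, exposed 96 h at 37C to a dilution series. Viability read by CellTiter-Glo luminescence, normalized to DMSO and empty wells; activity summarized as Z-AUC.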

[2] = qHTS for identification of novel therapeutic agents for treatment of microphthalmiaassociated transcription factor (MiT) renal cell carcinoma (RCC) (AID 1963991); conditions: CellTiter-Glo, 48 h; for z-score: stronger effect = lower value;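 on z-score: curves scaled with 100% = DMSO viability and 0% = empty wells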
Outline: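 UOK109/UOK124/UOK145 (TFE3 fusions, three partners); 500 cells/well; MIPE v4.0, 1912 cpds, 11 conc.; 48 h, 37 C; CellTiter-Glo, 15 min RT; lum. Norm.: DMSO 100%, empty 0%.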

[3] = measured here: PEO1 parental viability
[4] = TFE3-RCC UOK109 viability, measured here: UOK109 Z-AUC
[5] = TFE3-RCC viability, measured here: UOK124 Z-AUC
[6] = TFE3-RCC viability, measured here: UOK124 cell viability
[7] = TFE3-RCC viability, measured here: UOK145 Z-AUC
[8] = TFE3-RCC viability, measured here: UOK145 cell viability
Tags describe the fitted curve by direction and shape.

| SMILES | AC50 [1, 3] | AC50 ([1]; measured here: PEO4 viability) | z-score [2, 4] | z-score [2, 5] | AC50 [2, 6] | z-score [2, 7] | AC50 [2, 8] |
| --- | --- | --- | --- | --- | --- | --- | --- |
| Cc1ccc(NC(=O)c2cccc(C(C)(C)C#N)c2)cc1Nc1ccc2ncn(C)c(=O)c2c1 | 7.76 µM [falling, partial curve] | 7.76 µM [falling, partial curve] | -0.248 | 0.123 | 20.9 µM [falling, partial curve] | 0.129 | 20.9 µM [falling, partial curve] |
| CC(=O)Nc1ccc([C@H](C)C(=O)Nc2ncc(C(C)C)s2)cc1 | 1.95 µM [falling, full curve] | 3.47 µM [falling, full curve] | -0.889 | -0.577 | 5.26 µM [falling, full curve] | -0.766 | 1.87 µM [falling, full curve] |
| CCc1c(O)cc(O)c(C(=O)c2ccc(OCCN3CCOCC3)c(OC)c2)c1CC(=O)N(CCOC)CCOC | 1.1 µM [falling, full curve] | 3.09 µM [falling, full curve] | -0.124 | 0.554 | 5.9 µM [falling, full curve] | -0.29 | 20.9 µM [falling, partial curve] |
| CNc1nccc(-c2cccnc2Oc2cc(C(=O)Nc3cccc(C(F)(F)F)c3)ccc2C)n1 | 5.49 µM [falling, single point] | 4.9 µM [falling, single point] | 0.499 | 0.607 | 20.9 µM [falling, partial curve, poor fit] | 0.00353 | 18.7 µM [falling, partial curve] |
